Out of some 310,000 compounds screened, about 2,200 (0.71%) showed an effect of 50% or more. Effects have a minus sign here. This is one part of the list.
target: human ether-à-go-go-related gene (hERG) potassium channel (human, UniProt Q12809); experiment: primary screen, population patch clamp on CHO cells stably expressing hERG
Sequence (Q12809 whole entry, looked up): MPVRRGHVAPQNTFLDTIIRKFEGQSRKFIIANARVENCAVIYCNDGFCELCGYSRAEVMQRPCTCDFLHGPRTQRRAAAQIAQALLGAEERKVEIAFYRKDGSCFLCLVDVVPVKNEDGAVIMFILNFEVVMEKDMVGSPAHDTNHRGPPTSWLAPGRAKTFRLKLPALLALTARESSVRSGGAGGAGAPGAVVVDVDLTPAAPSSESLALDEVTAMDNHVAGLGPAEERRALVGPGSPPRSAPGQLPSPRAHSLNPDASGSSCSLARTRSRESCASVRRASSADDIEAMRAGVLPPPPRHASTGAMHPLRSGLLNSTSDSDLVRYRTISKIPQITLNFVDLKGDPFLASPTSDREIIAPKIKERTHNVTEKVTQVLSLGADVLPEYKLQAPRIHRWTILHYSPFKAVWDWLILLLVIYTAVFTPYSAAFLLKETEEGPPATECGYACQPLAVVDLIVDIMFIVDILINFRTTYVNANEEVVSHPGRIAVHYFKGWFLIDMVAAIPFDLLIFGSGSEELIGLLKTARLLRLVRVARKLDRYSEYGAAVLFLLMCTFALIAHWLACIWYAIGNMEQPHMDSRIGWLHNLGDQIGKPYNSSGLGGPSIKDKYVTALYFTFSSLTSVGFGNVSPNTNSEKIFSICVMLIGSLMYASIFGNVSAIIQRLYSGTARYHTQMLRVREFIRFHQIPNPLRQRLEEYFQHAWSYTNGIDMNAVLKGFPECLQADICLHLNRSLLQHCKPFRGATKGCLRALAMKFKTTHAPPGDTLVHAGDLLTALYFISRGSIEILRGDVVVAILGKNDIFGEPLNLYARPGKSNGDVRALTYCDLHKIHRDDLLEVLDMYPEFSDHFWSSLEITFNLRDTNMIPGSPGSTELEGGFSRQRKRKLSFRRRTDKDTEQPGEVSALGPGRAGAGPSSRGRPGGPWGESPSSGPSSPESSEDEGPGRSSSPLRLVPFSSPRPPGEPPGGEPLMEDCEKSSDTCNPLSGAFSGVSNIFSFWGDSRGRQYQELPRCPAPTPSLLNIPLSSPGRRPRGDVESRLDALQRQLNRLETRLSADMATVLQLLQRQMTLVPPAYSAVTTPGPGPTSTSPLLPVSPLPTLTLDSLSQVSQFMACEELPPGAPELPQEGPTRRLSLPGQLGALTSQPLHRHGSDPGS

| Compound | hERG current change (%, negative = inhibition) at 1uM [%] |
| --- | --- |
| COc1ccc(Cl)cc1NC(=O)Nn1cnnc1 | 0.286 |
| NC(=O)c1ccc(NC(=O)c2ccccc2S(=O)(=O)c2ccccc2[N+](=O)[O-])cc1 | 7.15 |
| C/C(=N\NC(=O)CNC(=O)c1ccc2c(c1)OCCO2)c1ccco1 | 13.5 |
| CCOC(=O)C(C)N1N=C(/C=C/c2ccc(OC)cc2)CCC1=O (stereo not shown) | 10.3 |
| CCCCN(C(=O)C(C)Oc1cccc(Cl)c1)c1c(N)n(CCC)c(=O)[nH]c1=O (stereo not shown) | 3.62 |
| O=C(CSc1nc2ccccc2c(=O)n1-c1cccc(C(F)(F)F)c1)NC1CC1 | 4.73 |
| Cc1noc(C)c1S(=O)(=O)N(CC(=O)NCCc1ccccc1)c1ccc(C(C)C)cc1 | 13 |
| COc1cccc(NC(=O)CSc2nnc(-c3cccnc3)o2)c1 | 13.2 |
| Cc1ccc(C)c(-c2nnc(NC(=O)CCS(=O)(=O)c3ccc(F)cc3)o2)c1 | -7.35 |
| COc1ccccc1CNC(=S)NC1CCCC1 | 17.5 |
| CCN(C(=O)COC(=O)c1ccc(S(=O)(=O)N2CCCc3ccccc32)cc1)C1CCS(=O)(=O)C1 (stereo not shown) | 7.48 |
| COc1cc(/C=C2\SC(=Nc3cccnc3)NC2=O)cc(OC)c1OC | 16.2 |
| COc1ccc(C(=O)Nc2ccc(N3CCN(C)CC3)cc2)cc1 | 11.9 |
| Cc1ccc(C2C(C#N)=C(N)Oc3cc(N)ccc32)cc1 (stereo not shown) | 12.1 |
| O=C(Nc1ccc(S(=O)(=O)NC2=NCCCCC2)cc1)c1ccccc1Cl | 4.57 |
| O=S1(=O)CC(O)C(N=Nc2c(O)n(Cc3ccccc3)c3ccccc23)C1 (stereo not shown) | 10.1 |
| COc1ccc(OC)c(/C=C/C(=O)OCC(=O)Nc2cccc(C(C)=O)c2)c1 | 8.22 |
| COC(=O)c1cccc(NC(=O)c2cccnc2C(=O)O)c1C | 20.9 |
| CC(Cc1cccs1)NC(=O)c1cccs1 (stereo not shown) | 13.8 |
| COc1ccc(S(=O)(=O)NCC2CCCN(C(=O)CSC)C2)cc1 (stereo not shown) | 26.5 |
| CCOC(=O)N1CCC(N2CC34C=CC(O3)C(C(=O)Nc3ccc(C(C)C)cc3)C4C2=O)CC1 (stereo not shown) | -0.951 |
| Cc1cc(C)cc(-n2c(C)c3c(C)nnc(C)c3c2C)c1 | 0.294 |

| Compound | hERG current change (%, negative = inhibition) at 1uM [%] |
| --- | --- |
| NC(=O)CSc1nnc(-c2ccc(S(=O)(=O)N3CCCCC3)cc2)n1-c1ccccc1 | 4.46 |
| Cc1ncc(CO)c2c1Oc1nc(-c3ccccc3)nc(SCC(=O)N(C)c3ccccc3)c1C2 | 9.6 |
| COC(=O)NC1CSCC1OC(=O)CN1C(=O)c2ccccc2C1=O (stereo not shown) | 6.52 |
| Cc1c(Cl)ccc2c(C(=O)NCCN3CCCCC3)cc(-c3ccccn3)nc12 | 8.77 |
| Cc1cccc(N(Cc2ccccc2)C(=O)c2cc(S(=O)(=O)N3CCOCC3)ccc2Cl)c1 | 5.46 |
| CCn1c(SCC(=O)N2CCCC2)nc2c1c(=O)n(C)c(=O)n2C | 3.58 |
| CCOc1ccc(-c2nc(C#N)c(NCC3CCCO3)o2)cc1 (stereo not shown) | -2.32 |
| Cc1nc(N)sc1-c1nnc(SCC(=O)Nc2ccccc2C(F)(F)F)n1C | 15.3 |
| Cc1cccc(C)c1NC(=S)NCCSc1ccc(Cl)cc1 | 11.3 |
| CCOC(=O)CCCNC(=O)c1cncc(Br)c1 | 5.35 |
| O=C1[C@@H]2[C@@H]3C[C@@H]([C@H]4ON=C(c5ccc(Cl)cc5)[C@@H]34)[C@@H]2C(=O)N1C1CCCCC1 | 8.61 |
| Cc1cc(C)n(CC(=O)NNC(=O)COc2ccc(F)cc2Br)n1 | 5.97 |
| CCOC(=O)C1CCN(CCC(=O)Nc2ccc(Cl)cc2)CC1 | -32.4 |
| Cl.OC(COc1ccc2c(c1)CCC2)CN1CCN(c2cccc(Cl)c2)CC1 (stereo not shown) | -9.33 |
| O=C(Nc1cccnc1)c1cc(S(=O)(=O)N2CCCCC2)c(Cl)cc1Cl | 8.31 |
| CC1CC(C)CN(C(=O)CSc2nnc(N)s2)C1 (stereo not shown) | 9.08 |
| CCSc1nc2ccccc2n1Cc1nc(N)nc(N(C)C)n1 | 9.82 |
| O=c1cc([O-])nc(SCc2ccccc2)n1-c1ccc(F)cc1.[K+] | -1.35 |
| Cc1ccccc1C(=O)Nc1ccccc1-c1nnn(CC(=O)Nc2ccc3c(c2)OCCO3)n1 | 2.38 |
| C/C(=N\NC(=O)Cc1cc(=O)[nH][nH]1)c1cccc([N+](=O)[O-])c1 | 9.22 |
| O=C(NNc1ccc(Cl)cc1)c1cccs1 | 9.61 |

Reference: publication PMC4336329 (PLoS ONE, 2015)
